Measured values reported in PubChem BioAssay AID485344 (National Center for Advancing Translational Sciences (NCATS), 2010).
Among all 340,000 compounds or so, about 6,900 (2%) were called active. No stated cut-off is given here; in the data, active means inhibition above about 30%; inactive means below that, where a call was filed. This is a selection; strong and weak results do not stand in their true shares. Where no call is shown, the source filed none.

molecular target: D(2) dopamine receptor (Homo sapiens) (UniProt P14416); experiment: HTS Assay for Allosteric Antagonists of the Human D2 Dopamine Receptor: Primary Screen for Antagonists; settings: HEK293 TREx D2 cells, calcium flux, dopamine EC80; at 10 µM; stronger effect = higher value; further: 0% is about no effect
Sequence of UniProt P14416 (P14416 whole entry, looked up): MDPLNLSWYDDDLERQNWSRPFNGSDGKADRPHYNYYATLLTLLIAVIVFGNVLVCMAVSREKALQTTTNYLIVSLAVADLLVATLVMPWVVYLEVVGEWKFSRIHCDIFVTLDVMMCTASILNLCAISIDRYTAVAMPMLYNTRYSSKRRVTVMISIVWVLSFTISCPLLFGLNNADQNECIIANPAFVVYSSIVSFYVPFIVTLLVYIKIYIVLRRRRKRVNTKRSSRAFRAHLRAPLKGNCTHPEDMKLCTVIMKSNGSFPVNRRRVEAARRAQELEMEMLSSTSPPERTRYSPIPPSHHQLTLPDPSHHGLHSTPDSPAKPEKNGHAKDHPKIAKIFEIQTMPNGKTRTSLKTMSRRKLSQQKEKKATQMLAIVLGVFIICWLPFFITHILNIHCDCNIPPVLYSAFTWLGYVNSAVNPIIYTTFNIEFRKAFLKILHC
Summary of the method: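 Calcium mobilization kinetics were recorded at 1 s intervals in tetracycline-induced HEK293 T-REx D2 cells, first for 180 s after compound addition and then 180 s after EC80 dopamine.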

Row | Structure (SMILES) | inhibition
1 | O=C(NCCCN1CCN(c2ccccc2F)CC1)C1CC(=O)N(C2CCCC2)C1 (stereo unspecified) | active: 84.1%
2 | Cc1cc(C)c2c(C)c(C(=O)N3CCC(c4nc5ccccc5s4)CC3)oc2c1 | -4.07%
3 | O=C(CN(C(=O)c1csnn1)c1cccc(F)c1)NCc1ccc2c(c1)OCO2 | active: 42.3%
4 | CCN(CC)C(=O)Cn1cc(SCC(=O)Nc2ccc(C)cc2)c2ccccc21 | -2.57%
5 | COc1ccc(C)cc1NC(=O)C(NS(=O)(=O)c1cccc2nsnc12)c1ccccc1 (stereo unspecified) | -5.71%
6 | Cc1ccc(C)c(N2CCN(C(=O)Cn3nc(Cc4cccnc4)c4ccccc4c3=O)CC2)c1 | -8.66%
7 | CCOC(=O)N1CCc2c(sc3c2c(=O)n(-c2ccc(Cl)cc2)c(=O)n3CC(=O)Nc2ccccc2)C1 | -11.5%
8 | CC(=O)c1cccc(CN2CCN(Cc3ccc(C)cc3)C(CCO)C2)c1 (stereo unspecified) | active: 54.6%
9 | O=C(CSc1nnc(-c2ccccc2)o1)N1CCCc2ccccc21 | 2.23%
10 | CCOc1ccccc1CNC(=O)c1cnc2sc(N3CCC(C)CC3)nn2c1=O | 0.791%
11 | CCc1ccc(-c2csc(-c3cc4cc(Br)ccc4oc3=O)n2)cc1 | -11.4%
12 | COc1ccc(C(=O)Nc2nnc(S(=O)(=O)N3CCOCC3)s2)cc1 | 25%
13 | CCOC(=O)c1cc(OC(=O)c2ccc(OC)c(OC)c2)n(-c2ccccc2)n1 | 8.39%
14 | C[C@H](CS)C(=O)N1CCC[C@H]1C(=O)O | active: 30%
15 | COC(=O)c1[nH]c2cc(OC)ccc2c1NC(=O)CCN1CCN(c2cccc(C)c2C)CC1 | active: 57.2%
16 | COc1ccccc1CNC(=O)CCCn1c(=O)c2ccccc2n(Cc2ccccc2F)c1=O | -1.39%
17 | Cc1cccc(Cn2c(SCc3ccc(C(=O)NC4CCCCC4)cc3)nc3cccnc32)c1 | -1.39%
18 | Cc1ccc(N2CC(C(=O)Nc3ccc(Cl)cc3Cl)CC2=O)cc1 (stereo unspecified) | -10.3%
19 | COc1ccccc1NC(=O)CCNS(=O)(=O)c1ccc2c(c1)CCCC(=O)N2 | -4.91%
20 | CCn1c(=O)cc(SCC(=O)N2CCN(c3cc(C)ccc3C)CC2)c2ccccc21 | -5.76%
21 | CCOCN(C(=O)CSc1nc2ccccc2[nH]1)c1c(C)cccc1CC | -21%
22 | O=C(c1ccccc1)c1ccc2nc(Nc3ccccc3Cl)c3nncn3c2c1 | 4.61%
23 | CCCCN(CC)C(=O)Cn1nc(C)c2c(C)n(-c3ccccc3)nc2c1=O | -4.43%
24 | CCOC(=O)c1c(C)oc2nc(C)nc(NCc3cccc(OC)c3)c12 | -17.4%
25 | CC1CC(C)CN(CCCNC(=O)CN2C(=O)CSc3ccc(S(=O)(=O)N4CCCCC4)cc32)C1 (stereo unspecified) | active: 51.8%
26 | COc1cc(NC(=O)CSC2=Nc3ccccc3N=C(c3ccc(F)cc3)C2)cc(OC)c1 | -24.2%
